# Laboratory results: publication PMC4336329 (PLoS ONE, 2015)
# Hit rate of the full screen: of about 310,000 compounds, about 2,200 (0.71%) showed an effect of 50% or more. The effect is printed as a negative number. Some of the results follow.
# Target: human ether-à-go-go-related gene (hERG) potassium channel (human, UniProt Q12809)
# Experiment: primary screen, population patch clamp on CHO cells stably expressing hERG
# Sequence of human ether-à-go-go-related gene (hERG) potassium channel (Q12809 whole entry, looked up): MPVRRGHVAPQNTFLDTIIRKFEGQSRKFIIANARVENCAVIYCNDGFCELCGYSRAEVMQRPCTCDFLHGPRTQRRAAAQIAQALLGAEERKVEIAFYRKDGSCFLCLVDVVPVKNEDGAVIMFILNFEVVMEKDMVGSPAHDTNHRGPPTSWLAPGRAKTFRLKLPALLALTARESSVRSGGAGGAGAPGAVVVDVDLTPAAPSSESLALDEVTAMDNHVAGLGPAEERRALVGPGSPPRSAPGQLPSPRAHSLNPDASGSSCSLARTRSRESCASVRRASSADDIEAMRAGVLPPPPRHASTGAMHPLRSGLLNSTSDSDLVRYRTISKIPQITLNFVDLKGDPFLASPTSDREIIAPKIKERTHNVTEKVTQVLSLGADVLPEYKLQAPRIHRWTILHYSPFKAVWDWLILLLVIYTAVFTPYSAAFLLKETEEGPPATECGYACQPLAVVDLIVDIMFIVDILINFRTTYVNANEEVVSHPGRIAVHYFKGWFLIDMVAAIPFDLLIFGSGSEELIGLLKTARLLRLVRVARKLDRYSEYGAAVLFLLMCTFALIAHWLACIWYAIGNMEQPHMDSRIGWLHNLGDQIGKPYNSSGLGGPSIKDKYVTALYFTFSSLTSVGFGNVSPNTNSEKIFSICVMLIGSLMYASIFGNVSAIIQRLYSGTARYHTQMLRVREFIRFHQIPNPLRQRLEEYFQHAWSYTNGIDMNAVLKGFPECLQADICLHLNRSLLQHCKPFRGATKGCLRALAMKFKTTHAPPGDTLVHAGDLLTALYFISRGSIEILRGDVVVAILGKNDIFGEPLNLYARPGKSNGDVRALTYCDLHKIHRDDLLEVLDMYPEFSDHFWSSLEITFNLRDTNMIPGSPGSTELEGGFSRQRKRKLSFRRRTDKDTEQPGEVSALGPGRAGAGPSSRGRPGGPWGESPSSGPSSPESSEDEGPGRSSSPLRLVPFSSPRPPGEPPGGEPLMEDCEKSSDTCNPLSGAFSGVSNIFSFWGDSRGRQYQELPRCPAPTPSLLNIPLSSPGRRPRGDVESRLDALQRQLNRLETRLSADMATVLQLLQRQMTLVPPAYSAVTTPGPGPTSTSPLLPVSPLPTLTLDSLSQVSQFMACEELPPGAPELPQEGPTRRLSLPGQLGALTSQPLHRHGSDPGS
row,SMILES,"hERG current change (%, negative = inhibition) at 1uM [%]"
1,CC12CCC(C(=O)NCc3ccccc3Cl)(OC1=O)C2(C)C (stereo not drawn),-1.57
2,NS(=O)(=O)c1cc(C(=O)OCCNC(=O)c2ccccc2)c(Cl)cc1Cl,13.6
3,CC(C)(C)c1ccccc1NC(=O)NC1CCN(Cc2c(F)cccc2Cl)CC1,11.7
4,COc1ccccc1C(=O)Oc1ccc(C(C)(C)C)cc1,-4.75
5,CC(=O)[C@H]1[C@H](c2cccc(Cl)c2)C(C#N)(C#N)[C@@H]2c3ccccc3C=CN21,8.93
6,COc1ccc(-c2csc(NC(=O)Cc3ccccc3F)n2)c(OC)c1,20.1
7,CC1CCC(=NNC(=O)Cc2cccn2C)CC1 (stereo not drawn),8.86
8,CCCCCCCCNC(=O)CC(NS(=O)(=O)c1ccc(NC(C)=O)cc1)C(C)C (stereo not drawn),6.24
9,COc1ccc(CC2(CO)CCN(Cc3cccc4nccnc34)CC2)cc1,-53
10,Cc1ccc(OCCCC(=O)NC2CCCCC2)cc1,14.7
11,O=C(O)CC(NC(=O)c1cccc([N+](=O)[O-])c1)c1ccc2c(c1)OCO2 (stereo not drawn),13.1
12,O=C(Cc1ccc(Cl)cc1)Nc1ccccn1,23.3
13,CCn1cc(C(=O)OCC(=O)Nc2c(C)cccc2C)c(=O)c2ccc(C)nc21,14.5
14,Cc1nc2sc(C(c3cccs3)N3CCC(C(N)=O)CC3)c(O)n2n1 (stereo not drawn),10.8
15,CCC(=O)N1CCc2cc(S(=O)(=O)CCC(=O)Nc3ccc(C(C)=O)cc3)ccc21,0.948
16,CN(Cc1ccccc1)C(=O)N[C@@H](Cc1ccccc1)C(=O)O,8.82
17,COc1ccc(S(=O)(=O)N2CCOC23CCN(S(=O)(=O)c2ccc([N+](=O)[O-])cc2)CC3)cc1,-12.2
18,Cc1cccc(NC(=O)c2cc(S(=O)(=O)N3CCc4ccccc43)cn2C)c1C,12.7
19,CCOc1ccc(CCNS(=O)(=O)c2c(C)n[nH]c2C)cc1OCC,4.57
20,Nc1c(S(=O)(=O)c2cc(Cl)ccc2Cl)c2nc3ccccc3nc2n1CCN1CCOCC1,-3.72
21,COc1ccc(NC(=O)C2CCN(C(=O)Cc3ccccc3)CC2)cc1OC,12.1

row,SMILES,"hERG current change (%, negative = inhibition) at 1uM [%]"
1,CC1CCCN(CCCNC(=O)c2cn(C)c3ccc(S(=O)(=O)N(C)C4CCCCC4)cc3c2=O)C1 (stereo not drawn),-13.2
2,C#CC(C)(C)NC(=O)CSc1nc2c(c(=O)n(C)c(=O)n2C)n1CCCC,0.505
3,COc1ccc(-c2cc(=O)c3c(O)cc(O[C@@H]4O[C@H](CO[C@@H]5O[C@@H](C)[C@H](O)[C@@H](O)[C@H]5O)[C@@H](O)[C@H](O)[C@H]4O)cc3o2)cc1O,12.5
4,CCOC(=O)c1sc(NC(=O)c2ccccc2F)c(C(N)=O)c1C,7.97
5,CCc1ccc(NS(=O)(=O)c2ccc3[nH]cc(C(=O)N(C)Cc4ccco4)c(=O)c3c2)cc1,-3.76
6,Cl.Ic1ccc(N2CCN(Cc3c[nH]c4ncccc34)CC2)cc1,14.1
7,COc1cc(NC(=S)N2CCCC(C)C2)c(OC)cc1Cl (stereo not drawn),19.4
8,COc1ccc(C(=O)N2CCNC(=O)C2)cc1S(=O)(=O)Nc1ccc(Br)cc1,5.42
9,C=C(CC1CC(O)[C@]2(C)OC3CC4OC5C[C@]6(C)O[C@]7(C)CCC8OC9C[C@]%10(C)OC%11C(C)=CC(=O)OC%11CC%10OC9C[C@@H](C)C8OC7CC6O[C@]5(C)C/C=C\C4OC3CC2O1)C(=O)O (stereo partly drawn),5.87
10,Cc1ccc(CNC(=O)c2ccc3c(=O)[nH]c4c(C(=O)NCC5CCCO5)sc(=S)n4c3c2)cc1 (stereo not drawn),-6.3
11,COc1cccc(C(=O)NC(C)C(c2cccs2)N2CCN(C)CC2)c1 (stereo not drawn),-1.59
12,O=C(Cn1cc(C(F)(F)F)ccc1=O)N/N=C/c1cccc(Cl)c1Cl,4.24
13,C=CCN(CC=C)c1nc2ccccc2nc1C(C#N)C(=O)OCCOC (stereo not drawn),8.8
14,COc1ccc(NC(=S)N2CCC(c3ccc(C)cc3)C2)cc1 (stereo not drawn),6.63
15,C=CCn1c(SCC(=O)NC(=O)NCC(C)C)nnc1C1CCCCC1,13.9
16,CCOc1ccccc1NC(=O)NCc1ccccc1F,15.4
17,Clc1cccc(-c2nnc(-c3ccno3)o2)c1,13.3
18,CCC(C)(C)NC(=O)C(c1ccc(OC)cc1)N(Cc1ccco1)C(=O)CCC(=O)Nc1cc(C)on1 (stereo not drawn),4.86
19,Cc1cc(NC(=O)CC23CC4CC(C2)CC(CC(=O)Nc2cc(C)on2)(C4)C3)no1,12.6
20,CCOC(=O)N1CCC(NC(=O)c2ccc(NC(=O)C3CCCO3)cc2)CC1 (stereo not drawn),0.967
21,COc1cccc(N2C(=O)C3C(C2=O)C3(c2ccccc2)c2ccccc2)c1 (stereo not drawn),4.91

row,SMILES,"hERG current change (%, negative = inhibition) at 1uM [%]"
1,O=C(O)C1CCN(S(=O)(=O)c2cccc3nsnc23)CC1,8.01
2,CC(C)=NOc1nc(N2CCOCC2)nc(N2CCOCC2)n1,15
3,COc1ccc(Nc2nc(Cl)c(C=O)s2)cc1,5.62
4,CC(NC(=O)Cc1ccccc1)c1ccccc1 (stereo not drawn),6.12
5,CC(=O)c1cccc(Nc2c([N+](=O)[O-])c(=O)oc3ccccc23)c1,13.5
6,O=C(NN=C1CCCCC1)c1ccccc1-n1cccc1,5.6
7,Cn1c(=O)c2c(nc(CN3CCN(c4ccccc4F)CC3)n2CCN2CCOCC2)n(C)c1=O,-5.62
8,CCOc1cccc(-c2nnc(SCC(=O)Nc3ccc(OC)c(OC)c3)n2N)c1,-7.23
9,O=C(CSc1nnc(-c2cccs2)o1)NCc1ccco1,8.17
10,CC1(C(=O)OCC(=O)Nc2nc(-c3ccc(F)c(F)c3)cs2)CC1(Cl)Cl (stereo not drawn),10.8
11,COc1ccc(CCNC(=O)CN(c2ccc(OC)cc2)S(C)(=O)=O)cc1,12.9
12,COc1ccc(/C=C(/NC(=O)c2ccco2)C(=O)N2CCCCCC2)cc1OC,15.2
13,CCn1cc(/C=C(\NC(=O)c2ccc(OC)cc2)C(=O)N2CCOCC2)c2ccccc21,13.3
14,CCOC(=O)CC1COc2ccccc2N1C(=O)c1ccc(F)cc1 (stereo not drawn),0.534
15,CC1(c2ccccc2)NC(=O)N(CC(=O)Nc2nc(-c3ccccn3)cs2)C1=O (stereo not drawn),4.5
16,O=C(CN1C(=O)CSC1=O)Nc1ccccc1N1CCOCC1,16.9
17,CC(C)c1csc(CN2CCC(CCC(=O)NCC3CCCO3)CC2)n1 (stereo not drawn),9.97
18,Cc1ccc(CSc2ccc(C(=O)N3CCOCC3)cc2[N+](=O)[O-])cc1,9.61
19,CN(C1CCCC1)C1CCN(C(=O)CNC(=O)/C=C/c2ccccc2)CC1,-14.5
20,Cc1ccc(NC(=O)CSc2ncc(-c3ccccc3)n2C(=O)c2ccccc2)cc1,7.02
21,COc1ccc(N=Cc2oc3ccc4ccccc4c3c2O)cc1,15.8

row,SMILES,"hERG current change (%, negative = inhibition) at 1uM [%]"
1,COc1ccc(-c2nnc(SCC(=O)c3ccco3)n2-c2ccccc2)cc1,2.74
2,Cc1c(NC(=S)NC(=O)Cc2ccccc2)cccc1C(=O)O,-5.67
3,CCOC(=O)N1CCN(C(=O)CNC(=O)c2ccc(Br)o2)CC1,12.3
4,Cc1ccc(NC(=O)c2ccc(NCC3CCCO3)c([N+](=O)[O-])c2)cc1Cl (stereo not drawn),1.96
5,COc1ccc(CCN(C)C(=O)c2cc(-c3ccccc3)nc3ccccc23)cc1OC,0.166
6,COc1cccc(CNC(=O)CN2C(=O)COc3ccc(S(=O)(=O)N4CCCC4)cc32)c1,8.65
7,Cc1cc(Cl)ccc1NC(=O)CSc1nnc(Cc2cccs2)n1Cc1ccco1,-6.89
8,CCCN(CC(=O)Nc1ccccc1C)C(=O)COc1ccc2c(c1)CCC2,7.65
9,CCCCCc1cc(=O)oc2c(C(CCN3CCCC(C)C3)c3ccc(OC)cc3)c(OC)cc(OC)c12 (stereo not drawn),14.7
10,O=C(NCc1ccco1)c1scc2c1OCCO2,6.64
11,COc1cc(OC)cc(C(C)=O)c1,14.7
12,Cc1ccc(-n2cccc2C(=S)N=P(N(C)C)(N(C)C)N(C)C)cc1,7.02
13,CCOc1ccccc1Oc1c(C)oc2cc(OC(=O)N3CCOCC3)ccc2c1=O,8.54
14,CC1CC(C)CN(C(=O)CCCn2c(=O)c3cccn3c3cccnc32)C1 (stereo not drawn),4.63
15,COc1ccc2c(c1OC)C(=O)N1c3cccc(Cl)c3C(=O)OC21 (stereo not drawn),-0.369
16,Cc1c(CNCCC2=CCCCC2)c(C(=O)O)c(C)n1Cc1ccccc1,-0.881
17,CCOC(=O)c1ccc(N2C(=O)CC(N3CCC(Nc4ccc(F)cc4)CC3)C2=O)cc1 (stereo not drawn),8.25
18,COc1ccc(CN(C)CC2CCCN(CCc3ccccc3C)C2)cc1O (stereo not drawn),11.6
19,O=C(COc1ccc(Cl)cc1Cl)N1CCCC1,10.7
20,COc1cccc(NC(=O)CN(C)C(=O)COc2ccccc2Cc2ccccc2)c1,4.22
21,CCOc1ccccc1N1CC(C(=O)Nc2ccccc2N2CCCC2)CC1=O (stereo not drawn),20.7
